Reference: the supplement of paper PMC12889115
The other results are listed elsewhere or left out. Rule as the data show it: active = 25% or less and inactive = the rest. Single values are uncertain, as repeats are few or missing.

Each molecule was assayed on Salmonella enterica serovar Typhimurium SL1344 (assay: intramacrophage bacterial GFP load (SAFIRE), percent of DMSO control (% of DMSO); higher = more intracellular bacteria (less inhibition)). Settings: 25 µM; system: infected RAW 264.7 macrophages.
Experimental: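 Secondary screen of the 553 primary hits at 25 µM. (i) S. Typhimurium SL1344 grown in Mueller-Hinton broth with 0.5 µg/mL polymyxin B, OD600 read after 18 h. (ii) SAFIRE assay: RAW 264.7 macrophages infected with S. Typhimurium sifB::gfp (MOI 30); compound added 2 h post-infection; cells fixed at 18 h; GFP-positive pixel fraction per macrophage imaged by confocal microscopy and expressed as % of DMSO control.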
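Also: compounds tested were the hits of an earlier 50 µM broth growth screen of a drug-like diversity library run with polymyxin B.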

Row | SMILES | intramacrophage bacterial GFP load
1 | CC(C)CN(C)Cc1cnc(S(=O)(=O)CC(C)C)n1Cc1ccccc1 | inactive: 53.2
2 | COc1ccc(CC2(CCC(=O)N3CCN(c4cc(Cl)ccc4C)CC3)CCC(=O)N2)c(F)c1 (stereo not drawn) | inactive: 92.2
3 | CC(C)C[C@H](NC(=O)c1csc2nc(-c3cccc(C(F)(F)F)c3)cn12)C(N)=O | inactive: 124
4 | COc1ccc(CCC(=O)N2CCC(CO)(Cc3ccc(Cl)cc3)CC2)cc1 | inactive: 171
5 | CC#CCN1C(=O)NC(CCCc2ccccc2)(C2CCN(C(=O)/C=C/c3ccccn3)CC2)C1=O (stereo not drawn) | active: 23.7
6 | O=C(CC1(c2cccc(C(F)(F)F)c2)CC(=O)N(C2CC2)C1=O)N(CC1CCC1)CC1CCCO1 (stereo not drawn) | inactive: 80.2
7 | COc1ccc(-c2nn(-c3ccccc3C)cc2CN(C)Cc2ccon2)cc1F | inactive: 78.4
8 | O=C(CC1(c2cccc(F)c2)CC(=O)N(C2CCCC2)C1=O)N1CCC(C(O)c2cccs2)CC1 (stereo not drawn) | inactive: 62.1
